The structures appear in SMILES notation. The campaign covered roughly 310,000 compounds. About 2,200 (0.71%) showed an effect of 50% or more. Effects have a minus sign here. The list shows a part of the results.

Chain of human ether-à-go-go-related gene (hERG) potassium channel (Q12809 whole entry, looked up): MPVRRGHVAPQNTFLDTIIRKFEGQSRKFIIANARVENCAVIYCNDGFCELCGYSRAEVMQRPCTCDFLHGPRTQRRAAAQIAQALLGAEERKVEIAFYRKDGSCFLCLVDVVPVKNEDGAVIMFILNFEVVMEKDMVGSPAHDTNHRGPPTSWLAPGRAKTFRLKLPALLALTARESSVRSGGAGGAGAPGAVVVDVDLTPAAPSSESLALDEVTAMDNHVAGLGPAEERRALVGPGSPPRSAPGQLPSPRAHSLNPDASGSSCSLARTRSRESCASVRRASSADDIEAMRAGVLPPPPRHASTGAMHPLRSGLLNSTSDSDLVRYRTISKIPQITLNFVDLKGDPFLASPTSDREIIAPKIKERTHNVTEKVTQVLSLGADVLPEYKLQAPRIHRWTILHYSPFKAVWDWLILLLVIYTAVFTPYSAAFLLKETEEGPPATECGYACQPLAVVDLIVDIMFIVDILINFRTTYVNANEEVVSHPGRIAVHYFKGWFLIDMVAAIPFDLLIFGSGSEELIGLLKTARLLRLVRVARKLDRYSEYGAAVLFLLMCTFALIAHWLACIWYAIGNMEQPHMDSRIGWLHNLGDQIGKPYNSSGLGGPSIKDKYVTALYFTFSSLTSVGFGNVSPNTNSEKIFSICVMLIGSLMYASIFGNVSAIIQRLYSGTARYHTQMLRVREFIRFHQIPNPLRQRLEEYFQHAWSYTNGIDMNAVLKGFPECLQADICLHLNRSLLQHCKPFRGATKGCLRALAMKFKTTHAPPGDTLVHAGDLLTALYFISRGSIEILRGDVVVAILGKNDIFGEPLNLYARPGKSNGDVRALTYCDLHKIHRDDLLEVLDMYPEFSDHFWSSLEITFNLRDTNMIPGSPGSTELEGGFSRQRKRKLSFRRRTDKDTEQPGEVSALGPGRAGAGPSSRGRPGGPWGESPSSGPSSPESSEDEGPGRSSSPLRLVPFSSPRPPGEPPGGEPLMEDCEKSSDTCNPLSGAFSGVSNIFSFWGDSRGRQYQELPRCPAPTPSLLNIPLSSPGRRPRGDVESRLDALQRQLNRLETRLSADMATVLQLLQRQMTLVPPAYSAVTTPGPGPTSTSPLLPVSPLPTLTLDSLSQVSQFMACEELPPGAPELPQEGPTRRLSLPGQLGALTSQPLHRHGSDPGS

This assay has as its target human ether-à-go-go-related gene (hERG) potassium channel (human, UniProt Q12809). Kind of assay: primary screen, population patch clamp on CHO cells stably expressing hERG.
With `NC(=O)C1CCN(CC(=O)c2c[nH]c3ccc(F)cc23)CC1`, the “hERG current change (%, negative = inhibition) at 1uM” value came out at 4.86%. With `COCC(C)NS(=O)(=O)c1ccc(C(=O)NCCCn2ccc3ccccc32)cc1` (centres unmarked) the figure was 17.9%. Next, `O=S1(=O)c2cccc3cccc(c23)N1Cc1nnc(-c2ccccc2Br)o1`: 1.17%; `CC1(C)Cc2ccccc2-c2nnnn21`: 1.49%. With `Cc1ccc(CSCC(N)C(=O)O)cc1` (centres unmarked) the figure was 11.2%; with `C(=C\c1ccccc1)/CN1CCN(Cc2ccc3c(c2)OCO3)CC1`, 6.43%; with `CC(C)CCNCC(=O)NC(c1ccccc1)c1ccccc1.Cl`, 7.38%. For the compound `CN1C(=O)C(c2ccccc2[N+](=O)[O-])C(=O)c2ccccc21` (centres unmarked), the “hERG current change (%, negative = inhibition) at 1uM” value came out at 2.32%. Next, `O=C(CNC1CCCCC1)Nc1cccc(C(F)(F)F)c1`: 13.4%; `CC(C)NC(=O)C(c1ccc(F)cc1)N(Cc1ccco1)C(=O)CCC(=O)Nc1ccccn1` (centres unmarked): 9.72%.

Regarding `CCn1c(C(=O)O)c(CC(=O)N(C)c2ccc(OC)cc2OC)c2ccccc21`, the “hERG current change (%, negative = inhibition) at 1uM” value came to 15.6%. Next, `CC(C)C[C@H](NC(=O)N1CC(=O)Nc2ccccc21)C(=O)N[C@H](Cc1c[nH]c2ccccc12)C(=O)O`: 10.1%. Next, `CC(C)c1ccc(NC(=O)C2CCCN(S(=O)(=O)c3cccnc3)C2)cc1` (centres unmarked): 21.1%; `C=CCn1cnc2sc(C(=O)Nc3ccccc3OC)c(C)c2c1=O`: 10.9%; `Cc1ccc(-c2cc(C(=O)OCC(=O)N(C)c3c(N)n(Cc4ccccc4)c(=O)[nH]c3=O)c3ccccc3n2)o1`: 18.6%.

Take `O=C1CSC(c2ccccc2)N1c1cccnc1` (centres unmarked): the “hERG current change (%, negative = inhibition) at 1uM” value is 8.37%. Consider `COc1ccc(-c2nnn(CC(=O)c3ccc4c(c3)OCCO4)n2)cc1OC`, for which the “hERG current change (%, negative = inhibition) at 1uM” value was determined as 8.73%.

As to `CC(NS(=O)(=O)c1ccc(Br)cc1)C(=O)NCC1CCCO1` (centres unmarked), the “hERG current change (%, negative = inhibition) at 1uM” value was determined as 14.1%. Consider `O=C(COC(=O)c1ccccc1)Nc1cc(Cl)ccc1Oc1ccccc1`, for which the “hERG current change (%, negative = inhibition) at 1uM” value is given as -7.48%. Next, `CCC(C)(C)C1CCc2[nH]nc(C(=O)NCC3CC3)c2C1` (centres unmarked): 12.1%. Next, `O=C(CSc1nc2ccccc2s1)NCCCN1CCOCC1`: 13.7%; `CC(C)(C)C(=O)Nc1cccc(C(=O)c2cccc(NC(=O)C(C)(C)C)c2)c1`: 1.15%; `CCC(C)NC(=O)c1cccc(C)c1` (centres unmarked): -0.28%. With `CC(C)Sc1nnc(NC(=O)c2ccc3c(c2)OCO3)s1`, the “hERG current change (%, negative = inhibition) at 1uM” value stood at 4.35%. With `CCOC(=O)c1c(NC(=O)CSc2ncccn2)sc2c1CC(C)(C)NC2(C)C` the figure was -25.6%; with `Cc1ccc(S(=O)(=O)CC(=O)Nc2nc(-c3ccccc3)cs2)cc1`, -1.87%.

`CC(=O)Nc1c(-c2ccc(F)cc2)nc2ccccn12`: the “hERG current change (%, negative = inhibition) at 1uM” value is on record as 2.43%. `OCC[C@H]1C[C@@H](O)[C@H](O)[C@]2(Cc3ccccc3O2)O1`: the “hERG current change (%, negative = inhibition) at 1uM” value is listed as 0.687%. Take `Cl.Nc1nc2ccccc2n1C(=O)c1cccs1`: the “hERG current change (%, negative = inhibition) at 1uM” value was 17.1%. With `CCn1ncc(Cl)c1C(=O)NC(C)c1ccccc1` (centres unmarked) the figure was -7.45%; with `COC(=O)C/C=C/[C@@H](C)[C@@H](/C=N/OCC[C@@H]1C=C[C@H](OC(C)=O)[C@@H](COC(C)=O)O1)NS(=O)(=O)c1ccc(C)cc1`, 7.04%; with `O=C(OC1CCOC1=O)c1cc(-c2ccccc2)nc2ccccc12` (centres unmarked), 1.09%. With `CC(=O)NC(=S)Nc1ccc2oc(=O)ccc2c1` the figure was 14.6%. Next, `CSCCC(NC(=O)COc1ccccc1)C(=O)N1CCCCCC1` (centres unmarked): 11.7%; `CN1CCN(C(=O)C2CCCCC2C(=O)O)CC1` (centres unmarked): 6.55%. Consider `Cc1cccc2sc(NNC(=O)c3ccc(S(=O)(=O)N4CCCC(C)C4)cc3)nc12` (centres unmarked), for which the “hERG current change (%, negative = inhibition) at 1uM” value was 16.2%.

Take `O=C(CN1C(=O)NC2(CCCC2)C1=O)OCc1ccccc1F`: the “hERG current change (%, negative = inhibition) at 1uM” value was 11.1%. Regarding `CN(C(=O)COC(=O)c1c2c(nc3ccccc13)CCCC2)c1c(N)n(Cc2ccccc2)c(=O)[nH]c1=O`, the “hERG current change (%, negative = inhibition) at 1uM” value is given as 7.37%. `COc1ccccc1/C=C(\NC(=O)c1ccc(OC)c(OC)c1)C(=O)Nc1ccc([N+](=O)[O-])cc1`: the “hERG current change (%, negative = inhibition) at 1uM” value is recorded as 16.7%.

As to `CCN(CC)c1ccc(/C=C2\C(=O)c3ccc(C(=O)O)cc3C2=O)cc1`, the “hERG current change (%, negative = inhibition) at 1uM” value came to 15%. With `Cc1ccc(OCC(=O)N(Cc2cccs2)C2CCS(=O)(=O)C2)cc1` (centres unmarked) the figure was 13.3%; with `COc1cccc(N2C(=NC(=O)C3CCCCC3)SC3CS(=O)(=O)CC32)c1` (centres unmarked), 15.3%. With `Cc1c(N/C(=N/S(=O)(=O)c2ccc(Cl)cc2)c2ccccc2)c(=O)n(-c2ccccc2)n1C` the figure was 3.8%; with `COc1cccc(-n2c(SCC(=O)c3c[nH]c4ccccc34)nc3ccccc3c2=O)c1`, 17%. With `Cc1ccc(NC(=O)c2c(C)noc2C)cc1` the figure was 5.05%; with `C/C(=N\Nc1ccc([N+](=O)[O-])cc1)c1ccc(N)cc1`, 3.67%; with `CCc1ccc(N2C(=O)CN(Cc3sccc3C)C2=S)cc1`, -6.96%. As to `O=C(COC(=O)C1(c2ccccc2F)CCCC1)N1CCc2ccccc21`, the “hERG current change (%, negative = inhibition) at 1uM” value was found to be 7.91%. In the case of `c1ccc(-c2csc3ncn4cnnc4c23)cc1`, the “hERG current change (%, negative = inhibition) at 1uM” value was determined as 1.17%. For `CSc1ccc(/C=C/C(=O)N2CCCN(C)CC2)cc1.Cl`, the “hERG current change (%, negative = inhibition) at 1uM” value amounted to 5.96%. With `Cc1cccc(C)c1OCC(=O)OCC(=O)Nc1ccc(Cl)cn1` the figure was 14.8%. Regarding `COc1ccc(NC(=O)CSc2[nH]c(=O)cc(C)c2C#N)cc1OC`, the “hERG current change (%, negative = inhibition) at 1uM” value worked out at 4.64%. For `CN1CC(=O)N(CC(=O)N2N=C(c3ccc(Cl)cc3)CC2c2ccco2)C1=O` (centres unmarked), the “hERG current change (%, negative = inhibition) at 1uM” value is listed as 6.28%. With `O=C(CCN1C(=O)C2C3C=CC(C3)C2C1=O)N1CCCCC1` (centres unmarked) the figure was -7.6%.

Consider `CCN(CC(=O)Nc1ccc(NC(C)=O)cc1)C(=O)c1cc(CN2C(=O)c3ccccc3C2=O)ccc1OC`, for which the “hERG current change (%, negative = inhibition) at 1uM” value turned out to be 9.34%. On to `COc1cc(C(=O)Nc2cc3c4c(c2)CC(=O)N4CCC3)cc(OC)c1OC`, for which the “hERG current change (%, negative = inhibition) at 1uM” value was 3.01%.

(Values after publication PMC4336329 (PLoS ONE, 2015).)
